{"source": "patent US9540424B2", "about": "“Serum albumin binding molecules” (BRISTOL-MYERS SQUIBB COMPANY, priority 2010, dated 2017)", "molecules": {"B1": {"name": "SABA2.1: His-tagged SABA2 sequence (protein)", "chain": "MGVSDVPRDLEVVAATPTSLLISWPKYDKTGHYYRITYGETGGNSPVQEFTVPTRQTTATISGLKPGVDYTITVYAVSKDDYYPHEHRPISINYRTEIDKPSQHHHHHH", "modifications": "His6 tag"}}, "test": "Differential Scanning calorimetry (DSC) thermostability of midscaled SABAs", "type": "physicochemical", "details": "1 mg/ml solution, 5° C. to 95° C. at 1 degree per minute", "description": "Differential Scanning calorimetry (DSC) analyses of the midscaled SABAs were performed to determine their respective Tm's. A 1 mg/ml solution was scanned in a N-DSC II calorimeter (calorimetry Sciences Corp) by ramping the temperature from 5° C. to 95° C. at a rate of 1 degree per minute under 3 atm pressure. The data was analyzed vs. a control run of the appropriate buffer using a best fit using Orgin Software (OrginLab Corp).", "note": "Entries with a single value are a further part of the results.", "data": [{"molecule": "B1", "values": [{"measurement": "DSC (Tm)", "setting": "first thermal transition (lower Tm)", "value": 58.5, "unit": "°C"}, {"measurement": "DSC (Tm)", "setting": "second thermal transition (higher Tm)", "value": 78.2, "unit": "°C"}]}]}
